The structures appear in SMILES notation. Hit rate of the full screen: of about 310,000 compounds, about 14,000 (4.5%) showed an effect of 50% or more. The effect is printed as a negative number. The list shows a part of the results.

Data on 56 molecules can be found in paper PMC4336329 (PLoS ONE, 2015).
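Further: peak tail current of the secondary pulse compared with the same well before compound.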

The experiment deals with human ether-à-go-go-related gene (hERG) potassium channel (human, UniProt Q12809). As to the kind of experiment: primary screen, population patch clamp on CHO cells stably expressing hERG.
Sequence of human ether-à-go-go-related gene (hERG) potassium channel (Q12809 whole entry, looked up): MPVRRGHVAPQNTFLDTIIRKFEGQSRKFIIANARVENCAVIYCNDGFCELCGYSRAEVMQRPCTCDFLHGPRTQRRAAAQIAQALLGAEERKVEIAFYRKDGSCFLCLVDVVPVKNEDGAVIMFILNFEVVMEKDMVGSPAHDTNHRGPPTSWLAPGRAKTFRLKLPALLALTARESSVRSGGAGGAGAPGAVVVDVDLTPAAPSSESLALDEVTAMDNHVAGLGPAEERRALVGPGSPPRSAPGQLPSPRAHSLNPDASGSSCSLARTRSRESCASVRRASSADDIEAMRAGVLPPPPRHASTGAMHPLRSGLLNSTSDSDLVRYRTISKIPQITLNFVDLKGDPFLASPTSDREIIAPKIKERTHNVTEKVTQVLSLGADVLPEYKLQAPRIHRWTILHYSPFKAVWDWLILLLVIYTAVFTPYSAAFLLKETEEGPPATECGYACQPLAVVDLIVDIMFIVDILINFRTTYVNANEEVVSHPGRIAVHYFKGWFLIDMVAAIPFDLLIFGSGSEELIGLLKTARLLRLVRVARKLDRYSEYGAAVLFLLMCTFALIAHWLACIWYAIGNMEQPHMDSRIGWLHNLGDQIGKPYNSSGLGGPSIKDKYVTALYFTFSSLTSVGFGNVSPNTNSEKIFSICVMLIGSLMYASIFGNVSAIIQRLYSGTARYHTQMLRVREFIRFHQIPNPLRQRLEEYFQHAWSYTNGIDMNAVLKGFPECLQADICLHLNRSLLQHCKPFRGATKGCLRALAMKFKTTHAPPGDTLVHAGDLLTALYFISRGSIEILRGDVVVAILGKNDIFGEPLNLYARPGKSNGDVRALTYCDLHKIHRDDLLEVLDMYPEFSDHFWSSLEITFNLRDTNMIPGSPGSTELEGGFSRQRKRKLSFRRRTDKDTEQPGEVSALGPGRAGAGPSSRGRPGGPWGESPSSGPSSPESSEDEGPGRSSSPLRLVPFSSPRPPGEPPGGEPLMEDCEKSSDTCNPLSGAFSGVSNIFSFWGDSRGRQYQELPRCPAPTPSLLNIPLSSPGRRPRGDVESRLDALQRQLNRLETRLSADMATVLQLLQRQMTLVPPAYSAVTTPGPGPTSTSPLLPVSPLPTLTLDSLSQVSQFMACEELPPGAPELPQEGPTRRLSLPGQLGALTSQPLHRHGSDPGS
For the molecule `CCOc1cc(NC(=O)c2ccco2)c(OCC)cc1NC(=O)Cc1cccc(OC)c1`, the “hERG current change (%, negative = inhibition) at 10uM” value is on record as -5.75%.

Regarding `Cn1c(=O)[nH]c(=O)c2c1nc(Sc1ncccn1)n2CCCc1ccccc1`, the “hERG current change (%, negative = inhibition) at 10uM” value is on record as -36.5%.

With `O=C1C(=O)N(Cc2cccnc2)C(c2ccc(Br)cc2)/C1=C(\O)c1ccc2c(c1)OCCO2` (centres unmarked), the “hERG current change (%, negative = inhibition) at 10uM” value amounted to 9.15%.

As to `Cc1ccc(S(=O)(=O)Nc2cc(C)cn(Cc3ccccc3)c2=O)cc1`, the “hERG current change (%, negative = inhibition) at 10uM” value turned out to be 2.58%.

On to `COc1cccc(NC(=O)CN(C)C(=O)c2ccccc2CCc2ccccc2)c1`, for which the “hERG current change (%, negative = inhibition) at 10uM” value is on record as 13.7%.

For the molecule `O=C(O)Cc1sc(Nc2cccc3ccccc23)nc1-c1ccc(F)cc1`, the “hERG current change (%, negative = inhibition) at 10uM” value stood at 20.3%.

Take `N#CCCn1cc(C(=O)Nc2ccc(C(=O)O)cc2)c(-c2cc3ccccc3o2)n1`: the “hERG current change (%, negative = inhibition) at 10uM” value was 10.7%.

`Cc1ccc(Oc2nc(C(F)(F)F)nc3ccccc23)cc1`: the “hERG current change (%, negative = inhibition) at 10uM” value is on record as -2.07%.

Turning to `Cc1cc(C(=O)NNC(=O)CCC2CCCCC2)c(C)o1`, the “hERG current change (%, negative = inhibition) at 10uM” value is 16%.

Regarding `CSc1ccc(C(=S)N2CCN(C(c3ccccc3)c3ccccc3)CC2)cc1`, the “hERG current change (%, negative = inhibition) at 10uM” value is given as 6.62%.

Consider `CC(=O)Nc1ccc(NC(=O)C(C)OC(=O)c2cccc(S(=O)(=O)N3CCCCC3)c2)cc1` (centres unmarked), for which the “hERG current change (%, negative = inhibition) at 10uM” value is recorded as 17.4%.

`CCOC(=O)CNC(=S)N(Cc1cccs1)C1CCCCC1`: the “hERG current change (%, negative = inhibition) at 10uM” value is listed as -34.7%.

Turning to `O=[N+]([O-])c1ccc2c(c1)oc1ccccc12`, the “hERG current change (%, negative = inhibition) at 10uM” value is reported as -2.93%.

Turning to `CC1(C)C2CC=C(/C=N/NC(=O)C(N)=O)C1C2` (centres unmarked), the “hERG current change (%, negative = inhibition) at 10uM” value came out at 9.46%.

Turning to `CCOC(=O)C1CCCN(c2c(Nc3cccc(C)c3)c(=O)c2=O)C1` (centres unmarked), the “hERG current change (%, negative = inhibition) at 10uM” value is reported as -4.9%.

Consider `CC(=O)Nc1ccccc1NC(=O)CC(C)(C)C`, for which the “hERG current change (%, negative = inhibition) at 10uM” value is given as -3.84%.

Take `OCC1(CO)COC(c2cccnc2)N1` (centres unmarked): the “hERG current change (%, negative = inhibition) at 10uM” value was 5.6%.

With `CCCn1nnnc1NCc1ccc(C(C)C)cc1`, the “hERG current change (%, negative = inhibition) at 10uM” value is recorded as 4.94%.

For the molecule `O=C(CCCCn1c(=O)[nH]c2ccccc2c1=O)NCc1ccc2c(c1)OCO2`, the “hERG current change (%, negative = inhibition) at 10uM” value is -6.99%.

On to `CSc1ncc(Cl)c(C(=O)Nc2ccc(S(=O)(=O)Nc3nccc(C)n3)cc2)n1`, for which the “hERG current change (%, negative = inhibition) at 10uM” value is -7.34%.

As for `COc1ccc(N(CC(=O)Nc2ccc3c(c2)OCCO3)S(=O)(=O)c2cccnc2)cc1`, the “hERG current change (%, negative = inhibition) at 10uM” value is -13%.

Take `CC(C)CC(=O)NC(=S)NCc1ccccc1`: the “hERG current change (%, negative = inhibition) at 10uM” value is listed as -3.56%.

Take `CCCNC(=O)CNC(=S)N(Cc1ccccc1F)C1CCCCC1`: the “hERG current change (%, negative = inhibition) at 10uM” value is listed as -10.8%.

As to `NC(=O)Nc1ccc(C(=O)OCC(=O)NCc2ccc3c(c2)OCO3)cc1`, the “hERG current change (%, negative = inhibition) at 10uM” value came out at 11%.

As for `CCOC(=O)C(=O)Nc1ccccc1C(=O)NC(C)C`, the “hERG current change (%, negative = inhibition) at 10uM” value is given as -0.222%.

With `Cc1ccc(Sc2ccc(CN3CCCCC3)cc2[N+](=O)[O-])cc1`, the “hERG current change (%, negative = inhibition) at 10uM” value was -27.4%.

As for `O=C(c1cc(F)ccc1F)C1CCCN(C(=O)CSc2ccccn2)C1` (centres unmarked), the “hERG current change (%, negative = inhibition) at 10uM” value is listed as -31.9%.

On to `CC(=O)NC(Cc1c[nH]c2ccccc12)C(=O)NCc1ccco1` (centres unmarked), for which the “hERG current change (%, negative = inhibition) at 10uM” value is listed as 12.5%.

Take `Cc1nc(Nc2nc3ccccc3o2)nc2c1CCC2`: the “hERG current change (%, negative = inhibition) at 10uM” value stood at 14.3%.

Take `O=C(O)c1ccc(N2C(=O)c3cccc(Oc4ccc(Cl)cc4)c3C2=O)cc1`: the “hERG current change (%, negative = inhibition) at 10uM” value is on record as -80.7%.

For the molecule `CC(=O)C1C(=O)CC(c2ccc(Cl)cc2)CC1=O` (centres unmarked), the “hERG current change (%, negative = inhibition) at 10uM” value is 3.96%.

Consider `CC(=O)c1cccc(NC(=O)COC(=O)c2ccc(S(C)(=O)=O)c([N+](=O)[O-])c2)c1`, for which the “hERG current change (%, negative = inhibition) at 10uM” value is 27.4%.

On to `COc1ccc2nc(SCC(=O)Nc3ccc4[nH]c(=O)[nH]c4c3)[nH]c2c1`, for which the “hERG current change (%, negative = inhibition) at 10uM” value is on record as 13.6%.

As for `CCc1cccc(C)c1NC(=O)C1CC=CCC1C(=O)O` (centres unmarked), the “hERG current change (%, negative = inhibition) at 10uM” value came out at 13.2%.

For `COc1ccc(C2Nc3ccccc3C(=O)N2NS(C)(=O)=O)cc1OC` (centres unmarked), the “hERG current change (%, negative = inhibition) at 10uM” value stood at 20.3%.

Consider `COc1ccc(S(=O)(=O)N2CCN(c3ccccc3)CC2)cc1`, for which the “hERG current change (%, negative = inhibition) at 10uM” value is -14.7%.

For the molecule `COC(=O)Nc1ccc(S(=O)(=O)N2CCN(CCN3C(=O)C4C5C=CC(C5)C4C3=O)CC2)cc1` (centres unmarked), the “hERG current change (%, negative = inhibition) at 10uM” value is listed as -6.26%.

Consider `Cn1c(/N=C/c2cc(Cl)ccc2O)nc2ccccc21`, for which the “hERG current change (%, negative = inhibition) at 10uM” value turned out to be 5.14%.

Take `CCN1CCN(c2nc3c(C)cccn3c(=O)c2/C=C(\C#N)C(=O)NCCCOC)CC1`: the “hERG current change (%, negative = inhibition) at 10uM” value is 2.76%.

For `C=C(C)[C@H]1CN[C@H](C(=O)O)[C@H]1CC(=O)O`, the “hERG current change (%, negative = inhibition) at 10uM” value stood at 6.4%.

For `Cc1cc(NC(=O)COC(=O)CCCOc2ccc(Cl)cc2C)no1`, the “hERG current change (%, negative = inhibition) at 10uM” value came to 11.4%.

In the case of `COc1ccccc1Cn1c(=S)[nH]c2cc(C(=O)NCCN3CCOCC3)ccc2c1=O`, the “hERG current change (%, negative = inhibition) at 10uM” value is given as -3.38%.

`Cc1ccc2c(CN(C)Cc3cccc(Cl)c3)cc(=O)oc2c1C`: the “hERG current change (%, negative = inhibition) at 10uM” value was determined as 12%.

With `Cc1cc(/C([O-])=C(/C(=S)Nc2ccc(F)cc2)[n+]2ccccc2)c(C)n1Cc1ccccc1Cl`, the “hERG current change (%, negative = inhibition) at 10uM” value is recorded as 16.8%.

`COc1ccccc1C(=O)NCC(=O)N/N=C/c1ccc2c(c1)OCO2`: the “hERG current change (%, negative = inhibition) at 10uM” value is recorded as 13.4%.

With `O=C(NCCC(NS(=O)(=O)OCC(Cl)(Cl)Cl)c1ccccc1)C(F)(F)F` (centres unmarked), the “hERG current change (%, negative = inhibition) at 10uM” value was -16.4%.

Turning to `O=C(O)C(=O)O.O=C1CN(C(=O)CNCc2ccccc2Cl)c2ccccc2N1`, the “hERG current change (%, negative = inhibition) at 10uM” value is on record as 2.15%.

As to `CC(C)(C)OC(=O)N1CCC[C@H]1c1nnc(SC/C=C/c2ccccc2)o1`, the “hERG current change (%, negative = inhibition) at 10uM” value is listed as -31.8%.

As for `CCCCN(CC)C(=S)Nc1ccc2nc3n(c(=O)c2c1)CCCCC3`, the “hERG current change (%, negative = inhibition) at 10uM” value was -59%.

Consider `O=C(CCCC(=O)N(CC(=O)NC1CCCC1)Cc1ccc2c(c1)OCO2)Nc1ccccn1`, for which the “hERG current change (%, negative = inhibition) at 10uM” value is given as -26.5%.

With `COc1ccc(N=Cc2c(O)n(Cc3ccccc3)c(=S)[nH]c2=O)c(OC)c1`, the “hERG current change (%, negative = inhibition) at 10uM” value was -1.29%.

As for `CC1CN(Cc2ccccc2)c2ccccc2NC1=S` (centres unmarked), the “hERG current change (%, negative = inhibition) at 10uM” value was found to be 6.25%.

In the case of `N#C/C(=C/c1cccc([N+](=O)[O-])c1)c1nnc2n1CCCCC2`, the “hERG current change (%, negative = inhibition) at 10uM” value is recorded as -22.2%.

Take `COc1ccc(C(=O)N2CCCC(Nc3ccc(F)cc3)C2)cc1F` (centres unmarked): the “hERG current change (%, negative = inhibition) at 10uM” value is on record as -6.55%.

Turning to `CN1C(=O)N(C)C(=O)C(CCc2ccccn2)(CCc2ccccn2)C1=O`, the “hERG current change (%, negative = inhibition) at 10uM” value is recorded as 3.54%.

For the molecule `O=C(Nc1ccc(S(=O)(=O)N2CCOCC2)cc1)c1ccc(Cl)cc1Cl`, the “hERG current change (%, negative = inhibition) at 10uM” value is given as -16.8%.
